This is one part of the list.
Experiments:
Assay in all cases: glycan array binding signal (z-score within array); higher = stronger binding
Conditions in all cases: glycan notation: IUPAC condensed, linker removed
Fuc(a1-2)Gal = molecular target: Fuc(a1-2)Gal
Outline: (§1)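 Arrays were curated from the Consortium for Functional Glycomics database, 3228 in total, and kept only where the protein sequence was available. Binding is expressed as a within-array Z-score. This score was averaged across arrays of the same protein sequence at different concentrations or buffers and across linkers, and negative values can be read as non-binding.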

Fuc(a1-2)Gal(b1-3)GalNAc = molecular target: Fuc(a1-2)Gal(b1-3)GalNAc
Outline: as §1

[1] = molecular target: Fuc(a1-2)Gal(b1-3)GalNAc(a1-3)[Fuc(a1-2)]Gal(b1-4)Glc
Outline: as §1

[2] = molecular target: Fuc(a1-2)Gal(b1-3)GalNAc(a1-3)[Fuc(a1-2)]Gal(b1-4)GlcNAc
Outline: as §1

[3] = molecular target: Fuc(a1-2)Gal(b1-3)GalNAc(b1-3)Gal
Outline: as §1

[4] = molecular target: Fuc(a1-2)Gal(b1-3)GalNAc(b1-3)Gal(a1-4)Gal(b1-4)Glc
Outline: as §1

[5] = molecular target: Fuc(a1-2)Gal(b1-3)GalNAc(b1-4)[Neu5Ac(a2-3)]Gal(b1-4)Glc
Outline: as §1

Fuc(a1-2)Gal(b1-3)GlcNAc = molecular target: Fuc(a1-2)Gal(b1-3)GlcNAc
Outline: as §1

[6] = molecular target: Fuc(a1-2)Gal(b1-3)GlcNAc(b1-2)Man(a1-3)[Fuc(a1-2)Gal(b1-3)GlcNAc(b1-2)Man(a1-6)]Man(b1-4)GlcNAc(b1-4)GlcNAc
Outline: as §1

[7] = molecular target: Fuc(a1-2)Gal(b1-3)GlcNAc(b1-2)Man(a1-3)[Fuc(a1-2)Gal(b1-3)GlcNAc(b1-2)Man(a1-6)]Man(b1-4)GlcNAc(b1-4)[Fuc(a1-6)]GlcNAc
Outline: as §1

[8] = molecular target: Fuc(a1-2)Gal(b1-3)GlcNAc(b1-3)Gal(b1-4)Glc
Outline: as §1

[9] = molecular target: Fuc(a1-2)Gal(b1-3)GlcNAc(b1-3)GalNAc
Outline: as §1

[10] = molecular target: Fuc(a1-2)Gal(b1-3)GlcNAc(b1-3)[Fuc(a1-2)Gal(b1-3)GlcNAc(b1-6)]GalNAc
Outline: as §1

[11] = molecular target: Fuc(a1-2)Gal(b1-3)GlcNAc(b1-3)[Gal(b1-4)GlcNAc(b1-6)]Gal(b1-4)Glc
Outline: as §1

[12] = molecular target: Fuc(a1-2)Gal(b1-3)GlcNAc(b1-3)[Neu5Ac(a2-6)Gal(b1-4)GlcNAc(b1-6)]Gal(b1-4)Glc
Outline: as §1

[13] = molecular target: Fuc(a1-2)Gal(b1-3)GlcNAc6S
Outline: as §1

[14] = molecular target: Fuc(a1-2)Gal(b1-3)[Fuc(a1-4)]GlcNAc
Outline: as §1

[15] = molecular target: Fuc(a1-2)Gal(b1-3)[Fuc(a1-4)]GlcNAc(b1-2)Man(a1-3)[Fuc(a1-2)Gal(b1-3)[Fuc(a1-4)]GlcNAc(b1-2)Man(a1-3)]Man(b1-4)GlcNAc(b1-4)GlcNAc
Outline: as §1

[16] = molecular target: Fuc(a1-2)Gal(b1-3)[Fuc(a1-4)]GlcNAc(b1-2)Man(a1-3)[Fuc(a1-2)Gal(b1-3)[Fuc(a1-4)]GlcNAc(b1-2)Man(a1-6)]Man(b1-4)GlcNAc(b1-4)[Fuc(a1-6)]GlcNAc(b1-4)[Fuc(a1-6)]GlcNAc
Outline: as §1

[17] = molecular target: Fuc(a1-2)Gal(b1-3)[Fuc(a1-4)]GlcNAc(b1-3)[Fuc(a1-3)[Gal(b1-4)]GlcNAc(b1-6)]Gal(b1-4)Glc
Outline: as §1

[18] = molecular target: Fuc(a1-2)Gal(b1-3)[Fuc(a1-4)]GlcNAc(b1-3)[Gal(b1-4)GlcNAc(b1-6)]Gal(b1-4)Glc
Outline: as §1

[19] = molecular target: Fuc(a1-2)Gal(b1-4)Fuc(a1-3)]GlcNAc(b1-2)Man(a1-3)[Fuc(a1-2)Gal(b1-4)[Fuc(a1-3)]GlcNAc(b1-2)Man(a1-6)]Man(b1-4)GlcNAc(b1-4)GlcNAc
Outline: as §1

Fuc(a1-2)Gal(b1-4)Glc = molecular target: Fuc(a1-2)Gal(b1-4)Glc
Outline: as §1

Fuc(a1-2)Gal(b1-4)Glc6S = molecular target: Fuc(a1-2)Gal(b1-4)Glc6S
Outline: as §1

Fuc(a1-2)Gal(b1-4)GlcNAc = molecular target: Fuc(a1-2)Gal(b1-4)GlcNAc
Outline: as §1

[20] = molecular target: Fuc(a1-2)Gal(b1-4)GlcNAc(b1-2)Man
Outline: as §1

[21] = molecular target: Fuc(a1-2)Gal(b1-4)GlcNAc(b1-2)Man(a1-3)[Fuc(a1-2)Gal(b1-4)GlcNAc(b1-2)Man(a1-6)]Man(b1-4)GlcNAc(b1-4)GlcNAc
Outline: as §1

[22] = molecular target: Fuc(a1-2)Gal(b1-4)GlcNAc(b1-2)Man(a1-3)[Fuc(a1-2)Gal(b1-4)GlcNAc(b1-2)Man(a1-6)]Man(b1-4)GlcNAc(b1-4)[Fuc(a1-6)]GlcNAc
Outline: as §1

[23] = molecular target: Fuc(a1-2)Gal(b1-4)GlcNAc(b1-2)[Fuc(a1-2)Gal(b1-4)GlcNAc(b1-4)]Man(a1-3)[Fuc(a1-2)Gal(b1-4)GlcNAc(b1-2)Man(a1-6)]Man(b1-4)GlcNAc(b1-4)GlcNAc
Outline: as §1

[24] = molecular target: Fuc(a1-2)Gal(b1-4)GlcNAc(b1-3)Gal(b1-4)GlcNAc
Outline: as §1

B1: Siglec-E (Mus musculus), Q91Y57 (protein)
chain: MLLLLLLLLLWGIKGVEGQNPQEVFTLNVERKVVVQEGLCVLVPCNFSYLKKRLTDWTDSDPVHGFWYREGTDRRKDSIVATNNPIRKAVKETRNRFFLLGDPWRNDCSLNIREIRKKDAGLYFFRLERGKTKYNYMWDKMTLVVTALTNTPQILLPETLEAGHPSNLTCSVPWDCGWTAPPIFSWTGTSVSFLSTNTTGSSVLTITPQPQDHGTNLTCQVTLPGTNVSTRMTTRLNVSYAPKNLTVTIYQGADSVSTILKNGSSLPISEGQSLRLICSTDSYPPANLSWSWDNLTLCPSKLSKPGLLELFPVHLKHGGVYTCQAQHALGSQHISLSLSPQSSATLSEMMMGTFVGSGVTALLFLSVCILLLAVRSYRRKPARPAVVAPHPDALKVSVSQNPLVESQADDSSEPLPSILEAAPSSTEEEIHYATLSFHEMKPMNLWGQQDTTTEYSEIKFPQRTAWP
Fuc(a1-2)Gal
  glycan array binding signal (z-score): -0.259
Fuc(a1-2)Gal(b1-3)GalNAc
  glycan array binding signal (z-score): -0.425
[1]
  glycan array binding signal (z-score): -0.209
[2]
  glycan array binding signal (z-score): -0.375
[3]
  glycan array binding signal (z-score): -0.294
[4]
  glycan array binding signal (z-score): -0.274
[5]
  glycan array binding signal (z-score): -0.497
Fuc(a1-2)Gal(b1-3)GlcNAc
  glycan array binding signal (z-score): -0.452
[6]
  glycan array binding signal (z-score): 0.618
[7]
  glycan array binding signal (z-score): 1.9
[8]
  glycan array binding signal (z-score): -0.32
[9]
  glycan array binding signal (z-score): -0.351
[10]
  glycan array binding signal (z-score): -0.394
[11]
  glycan array binding signal (z-score): 0.793
[12]
  glycan array binding signal (z-score): -0.339
[13]
  glycan array binding signal (z-score): -0.285
[14]
  glycan array binding signal (z-score): -0.374
[15]
  glycan array binding signal (z-score): 3.48
[16]
  glycan array binding signal (z-score): 0.284
[17]
  glycan array binding signal (z-score): -0.582
[18]
  glycan array binding signal (z-score): -0.355
[19]
  glycan array binding signal (z-score): 2.78
Fuc(a1-2)Gal(b1-4)Glc
  glycan array binding signal (z-score): -0.323
Fuc(a1-2)Gal(b1-4)Glc6S
  glycan array binding signal (z-score): -0.321
Fuc(a1-2)Gal(b1-4)GlcNAc
  glycan array binding signal (z-score): -0.46
[20]
  glycan array binding signal (z-score): 0.321
[21]
  glycan array binding signal (z-score): -0.228
[22]
  glycan array binding signal (z-score): 3.46
[23]
  glycan array binding signal (z-score): -0.134
[24]
  glycan array binding signal (z-score): -0.336
